Read counts are not given, so values of variants with three or more changes are uncertain.
B1: LINE1-full (parent)
chain: UACGUAGGUGGUUUUCCCCUGAUAGUGCUAAGGGGGCCUGGAAGUUUGGACUGGGCAGAGCUCAACACAGCGUGGCAAAGUGGCUGUGGCUAGACUGCCUCUCUGGAUUCCUCGUCACUCAGCAGGGCAUCUCUGAGAGAAAUGCC

Variants of: B1
Assay: self-cleavage, relative activity (ratio to wild type); higher = more cleavage; in vitro, sequencing; the parent is a self-cleaving ribozyme

Variant | self-cleavage
UACGUAGGUGGUUUUCCCCUGAUAGUGUUAAGGGGGCCUGGAAGUUCGGACUGGGCUGAGCUCAGCACAGCGUGGCAAAGUGGCUGUGGCUAGACUGCCUCUCUGGAUUCCUCGUCACUCAGCAGGGCUUCUCUGAGAGAAAUGCC [C28U U47C A57U A65G A129U] | 0.09
UACGUAGGUGGUUUUCCCCUGAUAGUGUUAAGGGGGCCUGGAAGUUCGGACUGGGCAGAGCUCAACACAGCGUGGCAGAGUGGCUGUGGCUAGACUGCCUCUCUGGAUUCCUCGUCACUCAGCAGGGCAUCUCUGAGGGAAAUGCC [C28U U47C A78G A138G] | 0.5
UACGUAGGUGGUUUUCCCCUGAUAGUGUUAAGGGGGCCUGGAAGUUUGGACUGGGCAGAGCUCAACACAGCGUGGCAAAGUGGCUGUGGCUAGACUGCCUCUCUGGAUACCCCGACACUCAGCAGGGCAUCUCUGAGAGAAGUGCC [C28U U109A U112C U115A A142G] | 1.19
UACGUAGGUGGUUUUCCCCUGAUAGUGCAGAGGGGGCCUGGAAGUUUGGACUGGGUAGAGCUCAACACAGCGUGGCAAAGUGGCUGUGGCUAGACUGCCUCUCUGGAUUCCGCGUCACUCAGCAGGGCAUCUCUGAGAGAAAUGCC [U29A A30G C56U U112G] | 0.09
UACGUAGGUGGUUUUCCCCUGAUAGUGCAGAGGGGGCCUGGAAGUUUGGACUGGGCAGAGCUCAACACAGCGUGGCAAAGUGGCUGUGGCUAGACUGCCUCUCUGGAUUCCUCGCCACUCAGCAGGGCAUCUCUGAGAGAAAUGCC [U29A A30G U115C] | 2.12
UACGUAGGUGGUUUUCCCCUGAUAGUGCAAGGGGGGCCAGGAAGUUUGGACUGGGCAGAGCUCAACACAGCGUGGCAAAGUGGCUGUGGCUAGACUGCCUCUCUGGAUUCCUCGUCACUCAACAGGGCAUCUCUGAGAGAAAUGCC [U29A A31G U39A G122A] | 1.22
UACGUAGGUGGUUUUCCCCUGAUAGUGCAAUGGGGGCCUGGAAGUUCGGACUGGGCAGAGCUCUACACAGCGUCGCAAAGUGGCUGUGGCUAGACCGCCUCUCUGGAUUCCUCGUCACUCAGCAGGGCAUCUCUGAGAGAAAUGCC [U29A A31U U47C A64U G74C U96C] | 0
UACGUAGGUGGUUUUCCCCUGAUAGUGCAAUGGGGGCCUGGAAGUUUGGACUGGGCAGAGCUCAACACAGCGUGGCAAAGUGGCUGCGGCUAGACUGCCUCUCUGGAUUCCUCGUCACUCAGCGGGGCAUCUCUGAGAGAAAUGCC [U29A A31U U87C A124G] | 0
UACGUAGGUGGUUUUCCCCUGAUAGUGCAAAGGGGGCCUGGGAGUUUGGACUGGGCAGAGCUCAACACAGCGAGGCAAAGUGGCCGUGGCUAGACUGCCUCUCUGGAUUCCUCGUCACUCAGCAGGGCAUCUCUGAGAGAAAUGCC [U29A A42G U73A U85C] | 0.2
UACGUAGGUGGUUUUCCCCUGAUAGUGCAAAGGGGGCCUGGAAGUUUGGGCUGGGCAGAGCUCAACACAGCGUGGCAAAGUGGCUGUGGCUAGACUGACUCUCUGGAUUCCUCGUCACUCAGCAGGGCAUCUCUGAGAGAAAUGCC [U29A A50G C98A] | 0.08
UACGUAGGUGGUUUUCCCCUGAUAGUGCAAAGGGGGCCUGGAAGUUUGGGCUGGGCAGAGCUCAACACAGCGUGGCAAAGUGGCAGUGGCUAGACUGCCUCUCUGGAUUCCUCGUCACUCAGCAGGGCAUCUCUGAGAGAAAUGCC [U29A A50G U85A] | 0.12
UACGUAGGUGGUUUUCCCCUGAUAGUGCAAAGGGGGCCUGGAAGUUUGGGCUGGGCAGAGCUCAACACAGCGUGGCAAAGUGGCAGUGGCUAGACUGCCUCUCUGGACUCCUCGUCACUCUGCAGGGCAUCUCUGAGAGAAAUGCC [U29A A50G U85A U108C A121U] | 0.13
UACGUAGGUGGUUUUCCCCUGAUAGUGCAAAGGGGGCCUGGAAGUUUGGACUGGGCAGGGCUCAACACAGCGCGGCAAAGUGGCUGUGGCUAGACUGCCUCUCUGGAUUCCUCGUCACUCAGCAGGGCAUCUCUGAGAGAAAUGCC [U29A A59G U73C] | 0
UACGUAGGUGGUUUUCCCCUGAUAGUGCAAAGGGGGCCUGGAAGUUUGGACUGGGCAGGGCUCAACACAGCGUGGCAAAGUGGCUGUGGCUAGACUGCCUCUCUGGAUUCCUCGUCACUCAGCAGGGCAUCUCAGUGAGAAAUGCC [U29A A59G U134A A136U] | 0.12
UACGUAGGUGGUUUUCCCCUGAUAGUGCAAAGGGGGCCUGGAAGUUUGGACUGGGCAGAGCUCGACACAGCGUGGCAAAGUGGCUGUGGCUAGACUGCCUCUCUGGAUUCCUCGUCACUCAGCAGCGCAUCUCUGAGGGAAAUGCC [U29A A64G G126C A138G] | 0.46
UACGUAGGUGGUUUUCCCCUGAUAGUGCAAAGGGGGCCUGGAAGUUUGGACUGGGCAGAGCUCAACGCAGCGUGGCAAAGUGGCUGUGGCUAGACUGCCUCUCUGGGUUCCUCGUCACUCAGCAGGGCAUCUCUGAGAGAAAUGCC [U29A A67G A107G] | 0
UACGUAGGUGGUUUUCCCCUGAUAGUGCAAAGGGGGCCUGGAAGUUUGGACUGGGCAGAGCUCAACACGGCGUGGCAAAGUGGCUGUGGCUAGUCUGCCUCUCUGGAUUCCUCGUCACUCAGCAGGGCAUCUCUGAGAGAAAUGCC [U29A A69G A94U] | 0.26
UACGUAGGUGGUUUUCCCCUGAUAGUGCAAAGGGGGCCUGGAAGUUUGGACUGGGCAGAGCUCAACACAGCGUGGCAAGGAGGCUGUGGCUAGACUGCCUCUCUGGAUUCCUCGUCACUCAGCAGGGCAUCUCUGAGAGAAAUGCC [U29A A79G U81A] | 1.15
UACGUAGGUGGUUUUCCCCUGAUAGUGCAAAGGGGGCCUGGAAGUUUGGACUGGGCAGAGCUCAACACAGCGUGGCAAAGUGGCUGUGGCUAGACUGCCUCUCUGGAUUCCUCGUCACUCUGCAGGGCAUCACUGAGAGAAAUGCC [U29A A121U U132A] | 1.54
UACGUAGGUGGUUUUCCCCUGAUAGUGCAAAGGGGGCCUGGAAGUUUGGACUGGGCAGAGCUCAACACAGCGUGGCAAAGUGGCUGUGGCUAGACUGCCUCUCUGGAUUCCUCGUCACUCUGCAGGGCAUCUCAGAGAGAAAUGCC [U29A A121U U134A] | 0.69
